PubChem BioAssay AID1768 (National Center for Advancing Translational Sciences (NCATS), 2009)
In all, about 270,000 compounds went through this assay and about 620 (0.23%) were called active. This list was built around the results that the source calls inconclusive (neither active nor inactive); the mix of calls is not that of the screen. The call rests on the fitted dose curve; in most records, active means well fitted inhibition curve with a large enough effect in the polarisation, with a control signal flat (not every such curve was filed as active); inconclusive means small, poorly fitted or top-dose-only effect, or effect the other way, or a change in a side signal; inactive means no such curve, though single readings can be large or run the other way; the % refers to the polarisation. Where the call is inconclusive, the potency comes from a doubtful curve fit. “Side channel” marks fits to a control or component signal instead of the main read-out.

The compounds below were run against Menin (Homo sapiens) (UniProt O00255) (assay: qHTS Assay for Inhibitors Targeting the Menin-MLL Interaction in MLL Related Leukemias: Competition With Texas Red Labeled MLL-derived Mutant Peptide). Settings: fluorescence polarization; FP activity change, negative = inhibition: at 61.6 µM (top of the series).
Potency means the concentration at half of the fitted maximal effect; tags describe the fitted curve by direction and shape or compound fluorescence and quenching.
Wherever FP activity change, negative = inhibition is given: % of control where 0% means no effect.

UniProt O00255, sequence (O00255 whole entry, looked up): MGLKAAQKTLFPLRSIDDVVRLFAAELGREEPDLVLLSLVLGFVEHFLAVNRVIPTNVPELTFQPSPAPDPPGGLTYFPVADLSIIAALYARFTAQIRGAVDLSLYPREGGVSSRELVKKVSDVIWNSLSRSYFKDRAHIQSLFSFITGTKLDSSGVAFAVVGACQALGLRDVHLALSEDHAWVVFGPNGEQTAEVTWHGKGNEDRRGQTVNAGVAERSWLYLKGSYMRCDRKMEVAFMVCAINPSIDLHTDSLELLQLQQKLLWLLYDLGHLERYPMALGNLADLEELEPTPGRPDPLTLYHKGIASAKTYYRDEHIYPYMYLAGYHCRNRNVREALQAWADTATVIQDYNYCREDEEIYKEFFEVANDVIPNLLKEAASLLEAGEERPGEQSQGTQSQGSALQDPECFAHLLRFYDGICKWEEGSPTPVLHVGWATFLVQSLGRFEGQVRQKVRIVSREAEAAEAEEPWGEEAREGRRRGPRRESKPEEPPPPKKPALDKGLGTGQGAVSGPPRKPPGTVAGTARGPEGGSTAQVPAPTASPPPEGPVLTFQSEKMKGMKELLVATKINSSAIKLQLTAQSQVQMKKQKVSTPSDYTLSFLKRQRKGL

FP activity change, negative = inhibition, inactive:
CCn1c(=O)n(C2=C(CO)CN(CC3CCCCCCC3)CC2)c2ccccc21 -11.6%
C(=C\c1cccc2ccccc12)/c1nnc(-c2cccs2)o1 8.48%
C[C@]12CC[C@@H]3c4ccc(O)cc4CC[C@H]3[C@@H]1CCC2OC(=O)CCC1CCCC1 (some centres not stated) 20.3%
Cc1ccc(CON=C2CCN(c3ncc(C(F)(F)F)cc3Cl)CC2)cc1 -0.841%
O=C(CSc1ncccn1)NCc1ccc2c(c1)OCO2 8.93%
C[C@@H]1C=CCC(=O)OC[C@H](C)C(=O)OC[C@H]2O[C@H]1C=C[C@@H]2O 8.97% [at 11.7 µM]
CCCC[C@]12Cc3cc(OC)c(OC)cc3C(O1)C1=C(CC3(CCCCC3)OC1=O)O2 -17.1% [at 11.7 µM]
COc1ccc2c(c1)O[C@@H](c1cccc(C(F)(F)F)c1)[C@H](OC(=O)NCCOc1ccccc1)C2=O -13.8%
N#CC1=C(N)n2c(s/c(=C\c3ccco3)c2=O)=C(C#N)C1c1ccco1 (configuration not stated) 13.4%

Potency, active:
Cc1ccc(S(=O)(=O)NCCn2c(C)cc3ccccc32)cc1 28.2 µM

Potency, inconclusive:
O=C(NC1CCCCC1)C(c1ccc(F)cc1)N(Cc1ccco1)C(=O)CN1C(=O)c2ccccc2S1(=O)=O (configuration not stated) 12.6 µM [fluorescent, side channel, partial curve]
COc1cc(NC(=O)CSc2nnc3c(n2)[nH]c2ccc(S(=O)(=O)NC(C)C)cc23)cc(OC)c1OC 31.6 µM [quencher, side channel, single point]
Nc1nc(Cl)cc(Sc2ccc(F)cc2)n1 39.8 µM [inhibitor, single point]
CCOc1ccc(/C=C/C(=O)c2cc(Br)ccc(=O)c2O)cc1 28.2 µM [quencher, side channel, partial curve]
COc1cc(/C=C2\C(=N)N3N=C(S(=O)(=O)CC(C)C)SC3=NC2=O)ccc1OC(=O)c1ccco1 22.4 µM [quencher, side channel, partial curve]
Cc1cccc(C)c1OCCN1CCOCC1 11.2 µM [inhibitor, partial curve]
COc1ccc(CCNC(=O)C2CCN(Cc3nc(-c4ccccc4C)oc3C)CC2)cc1OC 8.91 µM [fluorescent, side channel, partial curve]
CN(C)S(=O)(=O)c1cc(NC(=O)CN2CCc3ccccc32)ccc1Cl 39.8 µM [fluorescent, side channel, single point]
CN(C)CCCN(C(=O)c1ccc(C(=O)c2ccccc2)cc1)c1nc2ccc(F)cc2s1 8.91 µM [inhibitor, partial curve]
O=C(O)c1cc(NS(=O)(=O)c2ccc3ccccc3c2)ccc1O 28.2 µM [quencher, side channel, single point]
COc1ccc(-c2c/c(=N\c3nc(-c4ccccc4)c(C)s3)c3ccccc3o2)cc1O 3.98 µM [quencher, side channel, full curve]
O=S(=O)(Cc1cc(NCc2ccccc2)nc(-c2ccncc2)n1)c1ccccc1 31.6 µM [fluorescent, side channel, single point]
CCOC(=O)c1ccc(NC(=S)N2CCSC2c2ccc(OC)cc2)cc1 (configuration not stated) 12.6 µM [quencher, side channel, partial curve]
Cc1ccc(-c2[nH]nc(N)c2N=Nc2cccc(Cl)c2C)cc1 7.08 µM [quencher, side channel, partial curve]
CC(C)(C)C1CCc2c(sc(NC(=O)CSc3ncn[nH]3)c2C#N)C1 (configuration not stated) 28.2 µM [quencher, single point]
O=C(CSc1nnnn1-c1ccccc1)CSc1nnnn1-c1ccccc1 39.8 µM [quencher, side channel, single point]
CCCCC(O)(CCN1CCOCC1)c1ccc(Cl)cc1 (configuration not stated) 10 µM [fluorescent, side channel, partial curve]
C[C@@H](NC(=O)c1cc2c([nH]c3ccccc32)c(-c2ccccc2)n1)C(=O)O 22.4 µM [quencher, side channel, partial curve]
Cc1ccc(C)c(OCCn2cc(/C=C(\C#N)C(=O)NCc3cccs3)c3ccccc32)c1 11.2 µM [inhibitor, partial curve]
Cc1cs/c(=N\N=C\c2ccc(O)cc2)n1Cc1ccco1 15.8 µM [quencher, side channel, partial curve]
CCC(c1nnnn1C1CCCC1)N1CCN(c2ccccc2F)CC1 (configuration not stated) 8.91 µM [inhibitor, full curve, poor fit]
O=C(NCc1cccnc1)c1ccc(-c2cccc(Cl)c2Cl)o1 12.6 µM [quencher, side channel, partial curve]
CCOC(=O)c1c(N)sc2c(OCC)c(Br)ccc12 20 µM [quencher, side channel, partial curve]
COc1cccc(COc2ccc3c(C)cc(=O)oc3c2)c1 39.8 µM [inhibitor, single point]
Cc1cc(NC(=O)CCCSc2nc(-c3ccco3)cc(C(F)(F)F)n2)no1 28.2 µM [fluorescent, side channel, single point]
Cc1ccc(-n2ccnc2SCC(=O)N(CC(C)C)C2CCS(=O)(=O)C2)c(C)c1 (configuration not stated) 6.31 µM [fluorescent, side channel, partial curve]
CCOC(=O)c1ccccc1NC(=O)c1cn(CC)c2nc(C)ccc2c1=O 22.4 µM [quencher, side channel, partial curve]
CCc1cccc(Nc2c3c(nc4ncnn24)CCC3)c1 17.8 µM [fluorescent, side channel, partial curve]
Cc1cc(C)cc(-n2c(C)cc(/C=N/NC(=O)CN(c3c(C)cccc3C)S(C)(=O)=O)c2C)c1 1.26 µM [inhibitor, partial curve]
Nc1c(S(=O)(=O)c2ccccc2)cnc2c(-c3ccc(F)cc3)cnn12 3.16 µM [quencher, side channel, full curve]
COc1cc(NC(=O)C(c2ccccc2)c2ccccc2)c(C(=O)O)cc1OC 22.4 µM [quencher, side channel, single point]
CN(C)/C=C(/C(=O)c1ccc(Cl)cc1)S(=O)(=O)c1ccccc1 39.8 µM [inhibitor, single point]
Oc1ccc(Cc2ccc(Cl)cc2)c(O)c1 25.1 µM [quencher, side channel, single point]
CCN(c1ccccc1)S(=O)(=O)c1ccc(C(=O)Nc2nnc(CSC)o2)cc1 15.8 µM [quencher, side channel, partial curve]
Cc1cc(C)cc(N=c2c([N+](=O)[O-])nn(-c3ccc(Cl)cc3)n2O)c1 11.2 µM [quencher, side channel, partial curve]
CCOc1ccc(C(=O)NCC(C)NC(=O)c2ccc(OCC)cc2)cc1 (configuration not stated) 28.2 µM [fluorescent, side channel, single point]
CCc1ccc(N(C(=O)CNC(=O)c2ccco2)C(C(=O)NCC2CCCO2)c2ccccc2)cc1 (configuration not stated) 11.2 µM [inhibitor, partial curve, poor fit]
Nc1[nH][nH]c(=O)c1N=Nc1ccc2c(c1)OCO2 22.4 µM [quencher, side channel, single point]
CCCOc1ccc(-c2nc(SCc3ccccc3)[nH]c(=O)c2C#N)cc1OC 10 µM [quencher, side channel, partial curve]
CCn1c(SCc2ccccc2)nnc1C1CCCCC1 1.58 µM [inhibitor, full curve, poor fit]
CCOC(=O)c1c(/N=C/N(C)C)sc(/C=N/Nc2ccccc2)c1-c1ccccc1Cl 22.4 µM [quencher, side channel, single point]
O=c1c2ccccc2c(=O)n(Cc2ccccc2)n1Cc1ccccc1 31.6 µM [fluorescent, side channel, single point]
COc1ccc(NC(=O)c2cccc3cccnc23)cc1S(N)(=O)=O 35.5 µM [fluorescent, side channel, single point]
CC(=O)C1C(=O)c2c(cccc2[N+](=O)[O-])C1=Nc1ccccc1C (configuration not stated) 31.6 µM [quencher, side channel, single point]
CCCC(=O)Nc1ccc(C(=O)NCCCn2ccnc2)cc1 1.78 µM [inhibitor, partial curve]
Cc1cccc(OCC(=O)N2CCCc3ccccc32)c1 14.1 µM [inhibitor, partial curve]
COc1ccc2cc1Oc1ccc(cc1)C[C@H]1c3c(cc4c(c3Oc3cc5c(cc3OC)CCN(C)[C@@H]5C2)OCO4)CCN1C 2.82 µM [fluorescent, side channel, partial curve]
